Measured values: publication PMC9856372
No constants are given. Whether binding was seen depends on the method and setting. In cells and extracts the contact can be indirect. Some binding calls cover weakened binding; strength is not graded here. Where a sequence is shown, tags or fusion partners need not be part of it.

What was measured:
myc-tagged PTCH1(1-1316) = molecular target: T1, myc-tagged PTCH1(1-1316) (UniProt Q13635); assay: co-IP; HEK293 cells co-transfected with myc-PTCH1 variants and ATG101-FLAG; PTCH1 variants immunoprecipitated by the myc tag, immunoblotting; lysis buffer 50 mM Tris HCl pH 7.5, 150 mM NaCl, 1% NP-40, 0.05% sodium deoxycholate, 4 °C
T1 sequence: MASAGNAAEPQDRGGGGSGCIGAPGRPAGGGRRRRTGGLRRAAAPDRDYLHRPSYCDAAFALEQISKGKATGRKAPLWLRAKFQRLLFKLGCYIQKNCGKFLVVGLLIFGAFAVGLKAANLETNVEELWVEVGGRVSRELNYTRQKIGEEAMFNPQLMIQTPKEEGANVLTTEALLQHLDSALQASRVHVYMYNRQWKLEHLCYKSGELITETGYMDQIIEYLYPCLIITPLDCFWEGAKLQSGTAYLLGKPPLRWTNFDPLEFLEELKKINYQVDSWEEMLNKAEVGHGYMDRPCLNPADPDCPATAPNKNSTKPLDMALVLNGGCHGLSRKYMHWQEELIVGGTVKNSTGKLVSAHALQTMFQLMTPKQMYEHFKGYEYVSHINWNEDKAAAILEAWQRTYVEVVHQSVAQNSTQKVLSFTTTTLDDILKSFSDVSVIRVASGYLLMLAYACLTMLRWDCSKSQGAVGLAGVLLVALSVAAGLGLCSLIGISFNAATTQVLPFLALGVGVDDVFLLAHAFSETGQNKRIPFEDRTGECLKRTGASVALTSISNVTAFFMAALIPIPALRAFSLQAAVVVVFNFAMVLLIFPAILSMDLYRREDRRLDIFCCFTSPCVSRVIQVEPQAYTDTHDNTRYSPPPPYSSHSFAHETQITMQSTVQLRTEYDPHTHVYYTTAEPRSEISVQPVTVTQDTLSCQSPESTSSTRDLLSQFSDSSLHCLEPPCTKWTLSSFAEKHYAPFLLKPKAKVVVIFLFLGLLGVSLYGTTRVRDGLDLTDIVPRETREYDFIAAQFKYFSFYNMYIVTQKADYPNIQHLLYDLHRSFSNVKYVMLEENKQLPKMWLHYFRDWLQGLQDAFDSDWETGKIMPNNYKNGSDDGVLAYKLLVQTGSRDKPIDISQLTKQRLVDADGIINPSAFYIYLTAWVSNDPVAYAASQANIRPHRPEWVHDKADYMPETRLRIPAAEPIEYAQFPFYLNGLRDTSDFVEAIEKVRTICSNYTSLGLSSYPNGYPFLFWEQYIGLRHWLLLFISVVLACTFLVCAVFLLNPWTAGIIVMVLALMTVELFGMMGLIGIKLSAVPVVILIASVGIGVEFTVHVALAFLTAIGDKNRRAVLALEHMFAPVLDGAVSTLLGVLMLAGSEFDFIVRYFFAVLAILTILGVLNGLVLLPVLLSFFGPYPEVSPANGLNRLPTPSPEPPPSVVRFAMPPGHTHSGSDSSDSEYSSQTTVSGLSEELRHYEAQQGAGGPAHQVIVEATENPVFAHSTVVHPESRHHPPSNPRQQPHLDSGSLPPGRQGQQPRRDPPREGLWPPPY

[1] = molecular target: T2, PTCH1 C-CTD (1308-1447), HA-tagged (UniProt Q13635); assay: co-IP; HEK293 cells co-transfected with HA-tagged PTCH1 CTD fragments and ATG101-FLAG; CTD fragments immunoprecipitated, immunoblotting; lysis buffer 50 mM Tris HCl pH 7.5, 150 mM NaCl, 1% NP-40, 0.05% sodium deoxycholate, 4 °C
T2 sequence: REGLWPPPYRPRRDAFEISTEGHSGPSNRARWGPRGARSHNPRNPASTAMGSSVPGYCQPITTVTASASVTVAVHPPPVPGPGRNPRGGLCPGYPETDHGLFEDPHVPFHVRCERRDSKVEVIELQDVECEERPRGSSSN

[2] = molecular target: T3, PTCH1 full CTD (1176-1447), HA-tagged (UniProt Q13635); assay: as above
T3 sequence: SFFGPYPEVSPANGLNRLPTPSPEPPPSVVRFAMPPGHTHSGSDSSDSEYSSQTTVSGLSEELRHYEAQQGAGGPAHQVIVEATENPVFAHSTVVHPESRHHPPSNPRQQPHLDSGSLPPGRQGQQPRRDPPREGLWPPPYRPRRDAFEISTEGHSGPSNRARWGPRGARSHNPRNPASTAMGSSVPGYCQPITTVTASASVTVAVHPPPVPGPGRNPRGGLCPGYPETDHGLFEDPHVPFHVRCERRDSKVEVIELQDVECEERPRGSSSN

B1: ATG101-FLAG (protein, UniProt Q9BSB4 1-218)
chain: MNCRSEVLEVSVEGRQVEEAMLAVLHTVLLHRSTGKFHYKKEGTYSIGTVGTQDVDCDFIDFTYVRVSSEELDRALRKVVGEFKDALRNSGGDGLGQMSLEFYQKKKSRWPFSDECIPWEVWTVKVHVVALATEQERQICREKVGEKLCEKIINIVEVMNRHEYLPKMPTQSEVDNVFDTGLRDVQPYLYKISFQITDALGTSVTTTMRRLIKDTLAL
Q: B1 was tested. Which binding (myc-tagged PTCH1(1-1316)) did it give?
A: no binding

Q: What about the binding [1] of the same binder?
A: binds

Q: And the binding [2]?
A: binds
